# The whole screen tested about 340,000 compounds, of which about 3,300 (0.97%) were called active. This list was built around the results that the source calls inconclusive (neither active nor inactive); the mix of calls is not that of the screen.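 Rule for the calls: active = mean activation above about 17%, with every replicate also reaching it (limit read from the data, passing the limit was not always enough); inconclusive = only one of the two conditions met; inactive = the rest.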
# Biological target: Protein FosB (Mus musculus) (UniProt P13346)
# Sequence of UniProt P13346 (P13346 whole entry, looked up): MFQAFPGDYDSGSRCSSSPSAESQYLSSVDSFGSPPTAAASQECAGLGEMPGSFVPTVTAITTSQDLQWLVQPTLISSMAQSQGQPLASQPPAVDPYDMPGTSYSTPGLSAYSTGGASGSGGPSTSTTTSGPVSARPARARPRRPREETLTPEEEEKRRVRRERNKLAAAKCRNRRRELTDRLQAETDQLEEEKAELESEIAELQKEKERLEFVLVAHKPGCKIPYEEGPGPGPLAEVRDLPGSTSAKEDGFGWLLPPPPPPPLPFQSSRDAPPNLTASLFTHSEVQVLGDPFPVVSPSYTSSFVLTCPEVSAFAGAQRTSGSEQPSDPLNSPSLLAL
# Assay: enhancers of mouse delta FosB DNA binding – biochemical, fluorescence polarization, TAMRA-CDK5 oligo, single point, primary screen (AID 493131);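 note: fluorescence polarization rise as delta FosB binds a TAMRA Cdk5 AP-1 oligo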
# Settings: purified delta FosB, at 25 µM, active compounds read high, percent of positive-control signal above neutral wells
row,Structure (SMILES),activation
1,CCOC(=O)C(Cc1c[nH]c2ccccc12)NC(=O)c1ccccc1Br (stereo not given),inactive: -4.54%
2,COc1cc(C(=O)Nc2ccc(-c3nc4cc(C)ccc4o3)c(O)c2)cc(OC)c1OC,active: 26.9%
3,C#CCOCCOCCOCCNc1nc(N2CCN(C(=O)[C@H](CCCCN)n3cc([C@@H](N)CC(C)C)nn3)CC2)nc(N2CCN(C(=O)[C@H](Cc3cc4ccccc4[nH]3)n3cc([C@@H](N)Cc4ccc(O)cc4)nn3)CC2)n1,active: 59.3%
4,O=C1c2ccccc2S(=O)(=O)N1CCCN1C(=O)c2ccccc2S1(=O)=O,inconclusive: 16.8%
5,COc1ccccc1C(=O)NNC(=O)c1ccc(Br)cc1,inconclusive: 21.3%
6,C#CCOCCOCCOCCNc1nc(N2CCN(C(=O)C([C@@H](C)O)n3cc([C@@H](N)CCCCN)nn3)CC2)nc(N2CCN(C(=O)[C@H](CO)n3cc([C@@H](N)C(C)C)nn3)CC2)n1 (stereo not given in full),active: 31.2%
7,O=C(CSc1nnc(NC(=O)c2ccco2)s1)NC1CCCCC1,active: 21.8%
8,O=C(CSc1nc2ccccc2c(=O)n1NC(=O)Cc1ccccc1)NCc1ccccc1Cl,inconclusive: 20.7%
9,Cc1cc(C)c(Cn2c(=O)n(CCCC(=O)NCc3ccco3)c(=O)c3sccc32)c(C)c1,inconclusive: 18.7%
10,COc1cc(OC)cc(C(=O)Nc2ccc(NC(=O)c3ccco3)c(Cl)c2)c1,inconclusive: 16.2%
11,O=C(N/N=C/c1c[nH]c2ccccc12)c1[nH]c2ccc(Br)cc2c1-c1ccccc1,inconclusive: 17.1%
12,CCC1CCCCN1S(=O)(=O)c1ccc(C(=O)Nc2nnc(C3CC3)o2)cc1 (stereo not given),inactive: -6.77%
13,O=C(N/N=C/c1cccnc1)c1cc2c(ccc3ccccc32)o1,active: 32%
14,O=C(Cn1cnc2c(nnn2-c2ccccc2)c1=O)N1CCCc2ccccc21,inconclusive: 18.9%
15,Cc1nnsc1NC(=O)OCc1ccc(Cl)cc1Cl,inconclusive: 17.3%
16,COc1cccc(/C=N/NC(=O)c2cc3cc([N+](=O)[O-])ccc3s2)c1O,active: 41%
17,O=C(Nc1ccc(C(F)(F)F)cc1)N1CCN(c2ccnc3cc(Cl)ccc23)CC1,inconclusive: 16.2%
18,O=C1C(F)=CC(COC(c2ccccc2)(c2ccccc2)c2ccccc2)OC1n1cc(F)c(=O)[nH]c1=O (stereo not given),inactive: -33.9%
19,O=C(COc1ccc(/C=N/NC(=O)c2ccccc2O)cc1)Nc1ccc([N+](=O)[O-])cc1,active: 24.4%
20,Cc1csc(=O)n1CCC(=O)OCC(=O)NNC(=O)c1ccccc1,inactive: -4.73%
21,Cn1nnc(NC(=S)NC(=O)c2cccc3c(Br)cccc23)n1,inconclusive: 17.9%
22,CC(=O)Nc1ccc(NC(=O)CSc2nc3ccccc3nc2N2CCCCC2)cc1,inconclusive: 16.4%
23,O=C(c1ccco1)N1CCn2c1nc1ccccc12,inactive: 1.92%
24,Cc1cc(C)c2sc(N(CCCN(C)C)C(=O)c3ccc(S(=O)(=O)N4CCc5ccccc5C4)cc3)nc2c1,active: 100%
25,Nn1c(SCCOc2ccccc2)nnc1-c1cccnc1,inactive: 1.2%

row,Structure (SMILES),activation
1,CC(=O)Nc1ccc(NC(=O)C(C)OC(=O)/C(C#N)=C/c2ccc(N(C)C)cc2)cc1 (stereo not given),active: 36.3%
2,C/C(=N/NC(=O)c1cccs1)c1ccc(NC(=O)COc2ccc(Cl)cc2Cl)cc1,inconclusive: 17%
3,COc1ccc(C=O)cc1Cn1c(=O)n(CCC(=O)NCc2ccco2)c(=O)c2sccc21,active: 93.8%
4,CCS(=O)(=O)c1ccc2oc(Nc3ccc(OC)cc3)nc2c1,inactive: 4.44%
5,CCOc1ccc(NC(=O)CNC(=O)c2nn(-c3ccc(OC)c(OC)c3)c(=O)c3ccccc23)cc1,active: 75.8%
6,Cc1cc(NC(=O)CSc2nc3cc4c(cc3c(=O)n2CCc2ccccc2)OCO4)no1,inconclusive: 39.5%
7,COC(=O)CSc1ccc2c(N)c(C(=O)OC)sc2c1,inactive: -7.93%
8,CCOC(=O)c1c(C)[nH]c(C(=O)OC(C)C(=O)NCc2ccccc2)c1C (stereo not given),inconclusive: 16.7%
9,C=CCn1c(SCC(=O)c2c(N)n(C)c(=O)n(C)c2=O)nc2sc(C)c(C)c2c1=O,inconclusive: 48.5%
10,CCCCN1C(=N)N([C@@H](C)CN2CCC[C@H]2CN2C(N)=NC[C@H]2CC(C)C)C[C@H]1Cc1ccccc1,inconclusive: 17.4%
11,COc1cc(C(=O)Nc2nnc(-c3sccc3C)s2)cc(OC)c1OC,active: 16.9%
12,CCOc1ccc(CCNC(=O)Cn2c(=O)c3cccn3c3cccnc32)cc1,inconclusive: 20.8%
13,Cc1ccc(NC(=O)c2nc[nH]c2C(=O)NCCN(CCNC(=O)c2[nH]cnc2C(=O)Nc2ccc(C)cc2)CCNC(=O)c2[nH]cnc2C(=O)Nc2ccc(C)cc2)cc1,active: 48.2%
14,NC(N)=NS(=O)(=O)c1ccc(NC(=S)NC(=O)c2ccc3c(c2)OCO3)cc1,inconclusive: 22%
15,COc1cccc(C2(c3cccc(OC)c3)CC2C(=O)Nc2ccc(F)cc2)c1 (stereo not given),inactive: 1.79%
16,O=C(Nc1ccc(O)c2c(=O)cc(-c3cccc(Cl)c3)oc12)c1cccc(Cl)c1,inactive: 1.35%
17,COc1ccccc1CCNC(=O)c1cc(-c2ccncc2)nc2ccc(Br)cc12,inconclusive: 25.5%
18,N#CCCN(Cc1ccccc1)C(=O)c1nccnc1C(=O)O,inactive: -3.88%
19,S=c1[nH]nc(-c2ccc3ccccc3n2)n1-c1cc(Cl)cc(Cl)c1,inconclusive: 16.3%
20,O=C(NCCCO)/C(=C/c1ccc(-c2cccc([N+](=O)[O-])c2)o1)NC(=O)c1ccccc1,inactive: -0.845%
21,Cc1cc(-n2c(C)cc(C(=O)CSc3nnnn3-c3ccc(Cl)cc3)c2C)no1,inconclusive: 19%
22,CCc1ccccc1NC(=O)Nc1ccc(F)cc1F,inconclusive: 21.3%
23,COc1ccc(-c2sc(C(=O)c3ccc(Cl)cc3Cl)cc2CC(=O)O)cc1,inactive: 1.59%
24,Cc1cccc(COc2ccc(/C=N/NC(=O)c3nnn(-c4nonc4N)c3C)cc2)c1,inconclusive: 20.1%
25,COc1cc(C(=O)Nc2ccc(Oc3ncnc4sc(-c5ccccc5)cc34)cc2)cc(OC)c1OC,active: 68.2%

# — PubChem BioAssay AID493131 (Broad Institute, 2011)
